In ChEMBL document CHEMBL4888484, “Replenishing the malaria drug discovery pipeline: Screening and hit evaluation of the MMV Hit Generation Library 1 (HGL1) against asexual blood stage Plasmodium falciparum ,using a nano luciferase reporter read-out” (2022):
About 540 (0.36%) of roughly 150,000 compounds showed an effect of 50% or more. The list shows a part of the results.

These compounds were tested on Plasmodium falciparum (assay: Primary screen in NF54 nanoGlo assay, in single point, at 2uM, 72h; a lower Z score goes with more inhibition). Conditions: timepoint 72 hour.
Assay type: functional, Erythrocyte

Structure (SMILES)	% Inhibition	Z score
Cc1ccc(CN2CCOCCNC(=O)[C@H]3CCCC[C@H]32)o1	3%	-0.55
Cc1ccc(C(=O)N2CCS(=O)(=O)C[C@H]2C2CC2)c(Cl)c1	-7%	1.1
CN(CC(=O)N(CCn1ccc(C(F)(F)F)n1)C1CCCC1)S(C)(=O)=O	-1%	0.15
CCC(C)(C)NC(=O)c1ccc(F)cc1	-3%	0.64
O=C1CC(c2ccccc2)N2N=C(N3C(=O)C4CC=CCC4C3=O)NC2=N1 (stereo unspecified)	32%	-4.28
CN(C)[C@@H]1CN(C(=O)CC2CCCCC2)CC[C@@H]1CO	-8%	1.04
COC1(OC)CCOC[C@@H]1NC(=O)Nc1ccccc1C(F)(F)F	-2%	0.27
COc1ccc(-n2c(=O)c3c(C)n(Cc4ccccc4)c(=O)cc3n2Cc2ccccc2)cc1	-3%	0.38
CN(C(=O)c1cc(-c2ccc(F)cc2)[nH]n1)C(C1CC1)C1CC1	-14%	1.48
COCc1ccc(C(=O)N[C@@H](C)c2nc(C3CC3)no2)o1	-13%	2.2
Cc1cccc(-c2nc(-c3cccc(C(=O)NCCN4CCCC4=O)c3)n[nH]2)c1	8%	-1.09
COCc1cc(=O)n(CC(=O)Nc2ccc(C(F)(F)F)cc2)c(N2CCCC2)n1	-8%	1.25
CCc1csc(CNC(=O)[C@H]2CCS(=O)(=O)C2)n1	-11%	1.05
O=C1C[C@H](c2ccc(O)c(Cl)c2)c2cnn(Cc3cccs3)c2N1	-7%	0.88
CC(C)c1noc([C@H](C)N(C)CC(=O)NC(C)(C)C)n1	-12%	1.95
Cc1noc(C)c1S(=O)(=O)N[C@@H](C)C(=O)NC1CCCCCC1	-9%	1.29
Cc1c(CNCc2cccc(Br)c2)c(C(=O)O)c(C)n1-c1ccccc1	-8%	1.49
COCc1nc2c(s1)CN(S(=O)(=O)c1c(C)noc1C)CC2	1%	-0.15
O=c1[nH]c2ccccc2nc1-c1cc(Br)ccc1NS(=O)(=O)c1ccccc1	-1%	0.12
CO[C@H]1[C@H](NC(=O)c2c(F)cccc2Cl)c2ccccc2C12CCNCC2	-8%	1.06
Cc1cccc(NS(=O)(=O)c2cc(-c3[nH]nc(C)c3C)sc2C)c1	5%	-0.6

Structure (SMILES)	% Inhibition	Z score
Cn1ncn(CC(=O)NCCC2=CCCCC2)c1=O	-5%	1
Cc1cc(C)cc(C2CCN(C(=O)C(C)O)C2)c1 (stereo unspecified)	-9%	1.76
Cc1nc(C(C)C)cc(N2CCN(Cc3ccc(Cl)s3)CC2)n1	-6%	1.24
Cc1nnc(COc2ccc3ccccc3c2Br)o1	-9%	1.68
Cn1cc(Cl)c(-c2nc([C@H]3CCOC3)no2)n1	2%	-0.27
O=C(N[C@H](c1ccc(F)cc1F)C1CC1)c1cnn2cccc(Cl)c12	1%	-0.09
O=C(NCc1cn(-c2cccnc2)nn1)c1ccc(S(=O)(=O)N2CCOCC2)cc1	-5%	0.73
CCC[C@H]1CN(C(=O)CCc2ccc(N(C)C)cc2)C[C@@H]1NC(C)=O	-14%	1.96
CC1CC(C)n2nccc2N1C(=O)COCc1ccccc1Cl (stereo unspecified)	-2%	0.39
CC(C)c1nnsc1CN(C)Cc1cnccn1	-13%	1.23
CC1(C)CN(C(=O)CC2CC3CCC2C3)CC[S+]1[O-] (stereo unspecified)	-2%	0.4
O=C(NCc1ccccc1)NC[C@@]12CCC[C@H]1N(CC1CCCCC1)C(=O)CC2	-5%	0.6
CCOc1cc(N2CCN(C)CC2)ccc1NC(=O)[C@H]1CCCN(C(=O)N(CC)CC)C1	-16%	2.38
CCOCCN(C[C@H](C)C(=O)OC)C(=O)Cc1ccccc1F	0%	-0.04
CC(C)CC(=O)N1CCN(Cc2cccc(C#N)c2)[C@@H]2CS(=O)(=O)C[C@@H]21	-7%	1.03
C[C@H]1CN(C(=O)NCc2cccc(Cl)c2)C[C@@H]1CS(N)(=O)=O	-18%	1.79
Cn1ccnc(NC[C@]2(O)CCCC2(C)C)c1=O	-19%	1.77
CCc1ccnc(C(=O)N2CCN(c3cnccn3)CC2)c1	-4%	0.46
CN(CCCn1cccn1)C(=O)NC[C@@H](c1ccc(F)cc1)N1CCCC1	-2%	0.41
Cc1ccc(CN2CCN(Cc3cc(CC(C)C)[nH]n3)C[C@@H]2CCO)o1	11%	-1.46
O=C1CCC(=O)N1C1CCC(NC2CC(c3ccccc3)C2)CC1 (stereo unspecified)	-5%	0.68

Structure (SMILES)	% Inhibition	Z score
COc1cccc(CN[C@H]2[C@H](O)[C@@H](n3cccn3)[C@@H]3OC[C@H]2O3)c1	-9%	1.48
CCOc1cc(N(C)Cc2nc(C)cs2)ncn1	-2%	0.23
CC(=O)c1ccc(NC(=O)c2cc(-c3cccnc3)n(-c3ccc(C)cc3)n2)cc1	-4%	0.56
CCOC(=O)c1cccc(NC(=O)C2(N3CCOCC3)CCC2)c1	1%	-0.06
Cc1nn(-c2ccccc2)c2nc(Cc3ccccc3)nc(N3CCCN(C(=O)NC4CCCCC4)CC3)c12	21%	-4.11
CC1CCCCC1CNC(=O)C(O)C(O)c1nc2ccccc2s1 (stereo unspecified)	6%	-0.95
O=C(NCc1ccc(N2CCCCC2)nc1)c1cccc(Cl)c1	-7%	0.91
CCc1noc(-c2ccc3nnc(CC(=O)NCc4ccc(Cl)cc4)n3c2)n1	-7%	1.17
CCc1ccccc1C(=O)N1C[C@H]2C[C@H](C1)[C@@H]1CCCC(=O)N1C2	-8%	1.28
CCc1ncc(CN2CCC(CCC(=O)N(C)Cc3ccccc3)CC2)cn1	2%	-0.26
COc1cccc(CNC(=O)N2CCN(CC(F)(F)F)[C@@H](C)C2)n1	-2%	0.3
CC(C)N(CC(N)=O)CC(=O)N1CCOC2CCCCC21 (stereo unspecified)	17%	-2.12
CC(C)c1nnc([C@H](CC(=O)O)c2cccc(Cl)c2)o1	-8%	1.03
CN1CCN(c2ccc(-c3nc(CC(N)=O)n[nH]3)cc2)CC1	-8%	1.29
CC(C)[C@@H](NC(=O)C1CCC(F)(F)CC1)C(=O)O	-6%	0.83
Cc1nc2nc(C3CCCCC3)nn2c(C)c1CC(=O)N1CCOCC1	-6%	0.73
Cc1ccc(C[C@H](C)c2nc(CN3C(=O)NC(C)(C)C3=O)no2)cc1	-1%	0.14
CC(C#N)CN(C)S(=O)(=O)NCC1CCCOC1C(C)(C)C (stereo unspecified)	0%	-0.07
Cc1nc(C)c(C)c(N2C[C@@H]3[C@@H]4CC[C@@H](C4)[C@@H]3C2)n1	-5%	0.68
NC(=O)c1ccccc1NCc1cc(Cl)cc2c1OCOC2	-8%	0.73
Cc1cc2c(=O)n(CC(=O)N3CCN(c4ncccn4)CC3)cnc2cc1F	-1%	0.09

Structure (SMILES)	% Inhibition	Z score
Cn1c(=O)c2c(nc(N3CCOCC3)n2C[C@H](O)c2ccccc2)n(C)c1=O	-11%	1.48
O=S(=O)(c1cccnc1)N1CCn2nc(C3CC3)cc2C1	-6%	0.66
COc1ccc(C(C)CN2CCOC(C3CCCO3)C2)cc1 (stereo unspecified)	-9%	0.95
O=C(N[C@@H](N1CCOCC1)C(Cl)(Cl)Cl)c1cccnc1	0%	0.02
CCn1cnnc1CCNC(=O)CCc1scnc1C	-8%	1.61
Cc1nc(-c2cccc(NC(=O)CCc3ccc(S(=O)(=O)N4CCCC4)cc3)c2)cs1	-29%	3.35
COc1ccc(S(=O)(=O)CCNC(=O)c2ccc(Nc3ncccn3)cc2)cc1	-11%	1.3
CN(Cc1cccs1)C(=O)Cc1cn(-c2ccccc2)nc1-c1ccc(Cl)cc1	-2%	0.24
Cc1nn([C@@H](C)CCNS(=O)(=O)c2cnn(C(F)F)c2)c(C)c1Cl	-10%	1.26
CCNC(=O)[C@@H]1CC[C@](C)(C(=O)NCc2c[nH]c(=O)[nH]c2=O)C1(C)C	-11%	1.22
CC(C)N(C)Cc1ccccc1CN[C@@H](C)c1ccc2c(c1)OCCCO2	-1%	0.15
O=S(=O)(NCc1ccccc1)Nc1ccc2cn[nH]c2c1	-9%	1.1
CC(C)CCC(=O)N1CCC[C@H](NS(C)(=O)=O)C1	-19%	1.96
NS(=O)(=O)c1sc(Cl)cc1C(=O)N1CC(COc2ccccc2)C1	0%	0.01
Cc1nnc(CN2CC[C@H](c3cccc(Oc4ccccc4)c3)C2)o1	-8%	0.69
O=C(CCc1cc(Cl)cs1)NO[C@@H]1CCCCO1	-15%	1.24
COCCC1(C(=O)NCc2csc(-c3ccn(C)n3)n2)CCCC1	-4%	0.78
Cn1nc(C2CC2)cc1N1CCN(C(=O)c2ccc3nsnc3c2)CC1	8%	-1.01
CC(=O)N[C@H]1[C@H](c2ccccc2)NCC[C@@]1(C)O	0%	-0.05
COc1ccc(OCc2cc(C(=O)NC[C@H]3CCOC3)n[nH]2)c(Cl)c1	-5%	0.96
